Among all 45,000 compounds or so, about 65 (0.1%) were called active. The call rests on the fitted dose curve; in most records, active means well fitted activation curve with a large enough effect; inconclusive means small, poorly fitted or top-dose-only effect; inactive means no such curve, though single readings can be large or run the other way. This is one part of the list.
Target: Galactocerebrosidase (Homo sapiens) (UniProt P54803)
Test: A Novel Cell-Based Assay to Identify Small Molecules for B -Galactocerebrosidase; further: 0% is about no effect; nearly all actives have a fitted effect of over 65% in size
Details: 145M-Twi-hGALC-G270D cells (Twitcher mouse brain line with human GALC G270D), HMU-beta-Gal fluorescence, 48 h; series mostly up to 57.5 µM; activation: at the top concentration
Outline: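 Fluorescence readout: HMU-β-gal cleavage by mutant GALC (0.1 mM final, citrate/phosphate pH 5.2 with 1 mg/mL taurocholate), stopped with carbonate/bicarbonate plus Triton X-100. Cells: murine Twitcher 145M-Twi expressing human G270D GALC; qHTS for activators.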

Chain of UniProt P54803 (P54803 whole entry, looked up): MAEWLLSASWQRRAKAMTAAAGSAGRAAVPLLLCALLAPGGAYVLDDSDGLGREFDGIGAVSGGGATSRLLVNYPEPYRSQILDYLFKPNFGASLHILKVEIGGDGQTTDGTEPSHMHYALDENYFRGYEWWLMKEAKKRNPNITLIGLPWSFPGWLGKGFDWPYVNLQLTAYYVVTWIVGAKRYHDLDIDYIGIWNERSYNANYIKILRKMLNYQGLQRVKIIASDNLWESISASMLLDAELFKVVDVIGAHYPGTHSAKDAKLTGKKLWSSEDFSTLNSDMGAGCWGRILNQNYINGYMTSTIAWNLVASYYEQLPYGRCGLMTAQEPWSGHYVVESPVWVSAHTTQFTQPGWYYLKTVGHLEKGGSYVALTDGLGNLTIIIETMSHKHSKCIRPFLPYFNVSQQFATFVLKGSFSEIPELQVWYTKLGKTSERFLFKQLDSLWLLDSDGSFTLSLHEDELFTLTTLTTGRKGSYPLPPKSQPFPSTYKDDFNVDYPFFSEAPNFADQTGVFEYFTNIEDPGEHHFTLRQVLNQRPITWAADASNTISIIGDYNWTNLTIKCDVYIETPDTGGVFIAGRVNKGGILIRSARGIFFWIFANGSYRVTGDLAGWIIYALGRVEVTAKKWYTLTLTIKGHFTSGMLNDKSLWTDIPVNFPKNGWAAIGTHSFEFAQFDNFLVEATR

activation, inactive:
CC(C)c1ccc(NC(=O)Cn2nnc(C(=O)NCc3ccc(Cl)cc3)c2N)cc1 -5.23%
CN1c2cc(Cl)ccc2-c2nc(SCC(=O)Nc3ccc(F)cc3F)ncc2S1(=O)=O -7.64%
CC1=C(C(=O)Nc2cccnc2)C(c2ccc(F)cc2)n2nc(SCc3ccccc3F)nc2N1 (stereo not given) -17.2%
CCN(C(=O)c1cc2c(Cl)nc3ccccc3c2s1)c1cccc(Cl)c1 -23.5%
CCOC(=O)c1cnc2c(C)c(Cl)ccc2c1Nc1ccc(C)cc1C 17.1%
CCOC(=O)N1CCc2c(sc(NCc3ccc(OCC)cc3)c2C(=O)Nc2ccc(OC)cc2OC)C1 0.0556%
O=C(NC1CCCC1)c1ccc(CSc2nc3ccncc3n2Cc2ccccc2F)cc1 -7.68%
COc1ccc(OC2CCN(S(=O)(=O)c3ccc(OC)cc3)CC2)cc1 -4.89%
COc1cc(NC(=O)CN(C)S(=O)(=O)c2ccc3[nH]c4c(c3c2)CCCC4)cc(OC)c1OC -1.3%
CCOc1ccccc1NC(=O)C(Cc1ccccc1)NS(=O)(=O)c1ccc(Br)s1 (stereo not given) -38.6%
COc1ccccc1C(=O)NCc1ccc2c(c1)CCN2C(=O)c1ccncc1 -18%
CCOC(=O)C1CCCN(C(=O)C2CCN(c3nnc(C)c4c(C)n(-c5ccccc5)nc34)CC2)C1 (stereo not given) -7.05%
CCn1cc(C(=O)O)c(=O)c2cc(F)c(N3CCNCC3)nc21 -7.44%
Clc1ccc(-c2noc3ncnc(NCCCN4CCN(c5ccccc5)CC4)c23)cc1 -11.2%
Cc1cc(NC(=O)CSc2nc3c([nH]c4ccccc43)c(=O)n2-c2cccc(Cl)c2)no1 -1.09%
CC(=O)OCC(=O)NCCCOc1cccc(CN2CCCCC2)c1 -14.2%
CCc1ccc(CNC(=O)C(CC)n2ccc3cc(S(=O)(=O)N4CCCCC4)ccc32)cc1 (stereo not given) 5.54%
COc1ccc(CNS(=O)(=O)c2cc(C(=O)Nc3cc(Cl)cc(Cl)c3)ccc2F)cc1 -13.3%
Cc1ccc(C)c(N2CCN(C(=O)C3CCN(S(=O)(=O)c4cn(C)cn4)CC3)CC2)c1 -10.8%
COC(=O)C1=C(C)NC(COC(N)=O)=C(C(=O)OC(C)C)C1c1cccc(Cl)c1Cl (stereo not given) -13.9%
CCc1ccccc1Nc1nn2c(=O)c3ccc(C(=O)NCc4cccs4)cc3nc2s1 -21.1%
CCOC(=O)Cn1c(=O)oc2cc(S(=O)(=O)Nc3cc(OC)cc(OC)c3)ccc21 -16.2%
COc1ccc(N2CCN(C(=O)C3CCN(S(=O)(=O)c4cnc[nH]4)CC3)CC2)cc1 -6.05%
COc1ccccc1C(=O)NCc1ccc2c(c1)CCN2C(=O)c1cccc(C)c1 -17.3%
CCc1ccc(S(=O)(=O)c2nnn3c2nc(NCc2cccs2)c2sccc23)cc1 -25.9%
CCn1c(C)c(C)c2cc(C(=O)NCCc3cc(OC)c(OC)c(OC)c3)ccc21 -2.34%
CN1CCN(C(c2ccc(F)cc2)c2sc3nc(-c4ccco4)nn3c2O)CC1 (stereo not given) -15.4%
Cc1cccc(C(=O)Nc2cccc(C(=O)OCc3cc(=O)n4c5c(sc4n3)CCCC5)c2)c1 -7.04%
COc1ccc(Cn2c(C(=O)O)c(CNCc3cccs3)c3ccc(C)cc32)cc1 0.0713%
COc1ccc(-c2c3c(=O)n(C)c(=O)n(C)c3c3c(-c4ccccc4)nc4ccccc4n23)cc1 -14.9%
O=C(Nc1ccccc1F)C(Cc1ccccc1)n1cccc1 (stereo not given) -9.96%
COc1cc(OC)cc(-c2nc3nc(C)c(CCC(=O)Nc4ccc(Cl)cc4)c(C)n3n2)c1 2.08%
COc1cccc(C(=O)Nc2ccc3oc(-c4ccc5ccccc5c4)nc3c2)c1 -1.92%
Cc1cc(C)c(Nc2nn3c(=O)c4cc5c(cc4nc3s2)OCO5)c(C)c1 -8.06%
CNC(=O)c1cc2c(n(-c3ccc(C)cc3)c1=O)CC(C)(C)CC2=O -1.87%
O=C(Nc1ccc2nc(SCC(=O)N3CCOCC3)sc2c1)c1ccc(F)cc1 -0.312%
CCOc1ccc(S(=O)(=O)N(CC(=O)NCCSCc2ccc(C)cc2)c2ccccc2)cc1 -2.9%
CCn1ccc2cc(S(=O)(=O)N3CCCN(C(=O)Nc4ccccc4C(F)(F)F)CC3)ccc21 -20.8%
COc1cccc(CNC(=O)CSc2nc(=O)[nH]c3c2CCCC3)c1 -12%
CCc1ccc(NC(=O)Cn2c(=O)c(-c3ccccc3NC(C)=O)nc3ccccc32)cc1 4.75%
OC[C@@H](O)[C@@H](O)[C@H](O)[C@H](O)CO -18%
Oc1c(C(c2ccc(Cl)cc2Cl)N2CCOCC2)sc2nc(-c3ccco3)nn12 (stereo not given) -5.68%
CC(=O)N[C@@H](Cc1ccc(O)cc1)C(=O)O -14%
O=C(NCc1ccc(F)cc1)c1ccc(CS(=O)(=O)c2ccc(Cl)cc2)o1 -7.12%
Cc1ccc2c(=O)cc(C(=O)Nc3nnc(CC(C)C)s3)oc2c1C -19.5%
O=C(CC1N=C2c3ccccc3N=C(SCC(=O)Nc3cccc(Cl)c3)N2C1=O)NCc1cccs1 (stereo not given) -15.4%
Cc1cccc(Cn2c(=O)n(CCC(=O)NCc3ccc4c(c3)OCO4)c(=O)c3sccc32)c1 -13.1%
COc1ccc(CCNC(=O)Cn2cc(S(=O)(=O)Cc3ccccc3F)c3ccccc32)cc1OC -4.55%
CC1CCN(S(=O)(=O)c2ccc(N3CCCCS3(=O)=O)cc2)CC1 -11.6%
COc1ccc2c(c1)Cc1sc(NC(=O)c3ccccc3Br)nc1-2 -23%
CCc1ccc(NC(=O)c2ccc3c(c2)N(Cc2ccc(C)cc2)CCS3)cc1 -15.7%
CCn1c(SCC(=O)Nc2ccc(C)cc2Br)nnc1-c1nonc1NC(C)=O -2.13%
Cc1ccc(C)n1-c1nnc(N2CCC(C(=O)Nc3ccccc3Br)CC2)s1 -0.283%
CCCN1CCc2nc(N3CCN(CC)CC3)ncc2C1 -3.13%
Cc1ccc(OCCn2c(CNc3cccc(C)c3)nc3ccccc32)cc1 -1.85%
CCc1ccccc1N(C)C(=O)C1CCCN(c2ncnc3onc(-c4ccc(F)cc4)c23)C1 (stereo not given) -13.4%
CC(=O)c1ccc(C(=O)N(CCCN(C)C)c2nc3c(C)c(C)ccc3s2)cc1 7.26%
COc1ccc(N2Cc3cccc(C(=O)Nc4ccc(C(C)C)cc4)c3C2=O)cc1 3.39%
CCCCOC(=O)c1ccc(NC(=O)c2cc(-c3ccccc3)on2)cc1 -12.5%
CS(=O)(=O)NCC(c1ccco1)N1CCN(c2ccccc2)CC1 (stereo not given) 0.383%
COc1ccccc1CNc1cc(-c2ccccc2)nc2nncn12 -21.3%
CCOc1cccc(C(=O)Nc2c(C(=O)c3ccc(OC)cc3)oc3ccccc23)c1 -8.54%
O=C(CN(c1ccc(Cl)c(C(F)(F)F)c1)S(=O)(=O)c1ccccc1)N1CCc2ccccc2C1 -19%
Cc1nc2ccn(Cc3cccs3)c(=O)c2cc1C(=O)N1CCN(c2ccc(F)cc2)CC1 -6.62%
Cc1ccc(NC(=O)c2sc(-n3nc(C)c(CCC(C)C)c3C)nc2C)cc1C -9.88%
C=CCc1ccc(O)c(OC)c1 -10.1%
Cc1cccc(CSc2ncc(CO)n2Cc2ccc(F)cc2)c1 -26.5%
O=C(Nc1ccc2oc(-c3ccccc3F)nc2c1)c1ccccc1Cl -6.96%
Cc1ccc2c(c1)-c1nc(-c3ccc(Cl)cc3)cc(-c3coc4ccccc4c3=O)c1CO2 6.3%
Cc1cc(C)c2c(=O)cc(C(=O)Nc3sc4c(c3C(=O)NCc3ccccc3)CCCC4)oc2c1 -22.5%
COc1ccc(NC(=O)CSc2ncc3c(n2)-c2cc(Cl)ccc2N(Cc2ccccc2F)S3(=O)=O)cc1 -5.52%
CCCSc1ncc(Cl)c(C(=O)Nc2ccc(S(=O)(=O)Nc3ncccn3)cc2)n1 -8.86%
CCOC(=O)c1c(NC(=O)CSc2cn(CCNC(=O)c3ccccc3F)c3ccccc23)sc2c1CCC2 9.65%
COC(=O)c1cc(S(=O)(=O)NCC2CCN(Cc3ccc(F)cc3)CC2)cn1C -3.25%
O=C(Nc1ccc2nc(SCC(=O)N3CCCc4ccccc43)sc2c1)c1cccc(F)c1 -24.4%
Fc1ccc(-n2ncc3c(NCCCN4CCOCC4)ncnc32)cc1 -10.6%
CCOCCc1nn2c(=O)cc(COC(=O)CNC(=O)c3ccc(C(C)(C)C)cc3)nc2s1 -5.34%
Cc1ccc(Cl)cc1N1CCN(S(=O)(=O)c2ccc3[nH]c4c(c3c2)CCCCC4)CC1 -38.3%
COc1cc(NC(=O)CCc2c(C)nn(-c3ccc4nncn4n3)c2C)cc(OC)c1OC -5.65%
COc1cccc(CNC(=O)c2ccc(CSc3nc4ccncc4n3Cc3cccc(C)c3)cc2)c1 -0.643%
Cc1ccc2c(c1)N(CCC(=O)NCc1ccc(F)cc1)C(=O)CO2 -16%
COc1ccccc1CNS(=O)(=O)c1cc(C(=O)Nc2cccc(C(F)(F)F)c2)ccc1F -10.6%
CC(C)COC(=O)/C(C#N)=C\c1ccc(-c2ccccc2Cl)o1 -17.3%
Cc1c(CC(=O)NCCc2ccccc2F)c(=O)oc2c(C)c3occ(C(C)(C)C)c3cc12 -10.7%
COc1ccc(NC(=O)CSc2cn(CC(=O)N3CCOCC3)c3ccccc23)cc1OC -16.6%
COc1cccc(N2CCN(C(=O)c3ccc4c(=O)n(CCc5ccccc5)c(=O)[nH]c4c3)CC2)c1 -6.54%
O=C(CSc1ncc(S(=O)(=O)c2ccc(Br)cc2)c(=O)[nH]1)NCc1ccc(Cl)cc1 -7.44%
Cc1ccc(C)c(NC(=O)CCN2C(=O)c3ccccc3Sc3ncccc32)c1 -3.26%
CCOc1ccc(-c2nc(CSCC(=O)N3CCN(c4cccc(C(F)(F)F)c4)CC3)c(C)o2)cc1 -43.6%
O=C(Nc1ccccc1)C(Cc1ccccc1)N1Cc2ccccc2C1=O (stereo not given) -6.15%
CCc1ccc(S(=O)(=O)c2nnn3c2nc(N2CCC(C)CC2)c2cc(Cl)ccc23)cc1 -1.07%
COc1ccc(-c2cc(C(=O)NCc3cc(OC)c(OC)c(OC)c3)[nH]n2)cc1 -26.6%
Cc1cccc(OCC(=O)Nc2c(C)ccc3nsnc23)c1C -11.9%
Cc1nc(N2C(=O)c3oc4ccccc4c(=O)c3C2c2ccccc2F)sc1C (stereo not given) -5.77%
COc1cccc(N2CCN(S(=O)(=O)c3cc(Br)cc4c3N(C(=O)C3CC3)CC4)CC2)c1 -8.7%

— PubChem BioAssay AID1159614 (National Center for Advancing Translational Sciences (NCATS), 2016)
